From paper PMC4081100
This is a selection; strong and weak results do not stand in their true shares. For some assays here: At the low end of the ranking the order means little. Some of the results follow. For some assays here: The source does not settle which construct or isoform was used.

Experiments:
Assay in all cases: universal protein binding microarray (PBM)
Settings in all cases: transcription factors of Arabidopsis thaliana; high values mean tight binding; most listed sequences are background and not binding sites; double strand, one strand shown
GST-NTL6(1-168) = GST-NTL6(1-168) (UniProt Q9SCK6)
GST-ANAC055(1-171) = target: T1, GST-ANAC055(1-171) (UniProt Q9LDY8)
T1 sequence: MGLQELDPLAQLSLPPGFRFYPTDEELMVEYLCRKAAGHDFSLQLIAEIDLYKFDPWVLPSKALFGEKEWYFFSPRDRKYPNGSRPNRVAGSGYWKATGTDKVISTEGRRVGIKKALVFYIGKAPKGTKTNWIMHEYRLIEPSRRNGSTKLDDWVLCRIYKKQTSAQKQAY

GST-NTL8 NAC domain = target: T2, GST-NTL8 NAC domain (UniProt Q9XIN7)
T2 sequence: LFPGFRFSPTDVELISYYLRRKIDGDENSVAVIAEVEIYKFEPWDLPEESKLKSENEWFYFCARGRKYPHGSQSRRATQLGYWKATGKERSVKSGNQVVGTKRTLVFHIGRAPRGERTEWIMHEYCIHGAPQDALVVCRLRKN

GST-SND1(1-203) = target: T3, GST-SND1(1-203) (UniProt Q9LPI7)
T3 sequence: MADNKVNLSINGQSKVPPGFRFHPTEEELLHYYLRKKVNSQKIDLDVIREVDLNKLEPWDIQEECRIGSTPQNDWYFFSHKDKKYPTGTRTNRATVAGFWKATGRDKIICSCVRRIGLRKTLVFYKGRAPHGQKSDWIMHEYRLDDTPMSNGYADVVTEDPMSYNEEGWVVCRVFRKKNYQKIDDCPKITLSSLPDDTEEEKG

[1] = target: T4, GST-VOZ2 (Arabidopsis thaliana) (UniProt Q9SLB9)
T4 sequence: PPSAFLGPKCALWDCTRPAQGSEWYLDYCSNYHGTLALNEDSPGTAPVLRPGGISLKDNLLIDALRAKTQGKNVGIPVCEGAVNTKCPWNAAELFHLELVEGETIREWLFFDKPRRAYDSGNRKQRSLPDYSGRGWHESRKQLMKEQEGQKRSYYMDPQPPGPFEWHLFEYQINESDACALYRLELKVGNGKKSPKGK

GST-WRKY1(266-371) = GST-WRKY1(266-371) (UniProt Q9SI37)
GST-NAP(1-166) = target: T5, GST-NAP(1-166) (UniProt O49255)
T5 sequence: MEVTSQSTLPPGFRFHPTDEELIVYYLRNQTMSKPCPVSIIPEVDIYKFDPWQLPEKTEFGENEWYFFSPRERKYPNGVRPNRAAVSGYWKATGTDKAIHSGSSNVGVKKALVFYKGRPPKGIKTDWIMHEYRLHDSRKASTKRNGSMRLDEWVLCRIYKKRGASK

GST-ATAF1 NAC domain = target: T6, GST-ATAF1 NAC domain (UniProt Q39013)
T6 sequence: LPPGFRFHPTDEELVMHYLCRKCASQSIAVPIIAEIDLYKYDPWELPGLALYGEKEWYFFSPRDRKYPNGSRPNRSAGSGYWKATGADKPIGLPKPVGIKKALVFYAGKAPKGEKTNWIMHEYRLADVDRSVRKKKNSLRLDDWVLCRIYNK

GST-NST2(1-184) = target: T7, GST-NST2(1-184) (UniProt Q9M274)
T7 sequence: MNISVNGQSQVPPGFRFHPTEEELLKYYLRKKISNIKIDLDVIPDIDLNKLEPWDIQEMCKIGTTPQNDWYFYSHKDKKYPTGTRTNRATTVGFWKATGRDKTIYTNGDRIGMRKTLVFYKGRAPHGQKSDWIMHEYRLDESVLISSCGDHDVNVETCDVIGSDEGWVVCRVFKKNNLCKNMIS

GST-ANAC092(1-176) = target: T8, GST-ANAC092(1-176) (UniProt Q9FKA0)
T8 sequence: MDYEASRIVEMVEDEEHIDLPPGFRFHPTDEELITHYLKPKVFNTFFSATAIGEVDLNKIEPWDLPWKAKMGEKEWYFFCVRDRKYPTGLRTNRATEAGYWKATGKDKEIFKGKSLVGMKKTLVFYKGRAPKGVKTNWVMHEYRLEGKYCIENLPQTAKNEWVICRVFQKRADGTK

GST-ANAC019 NAC domain = target: T9, GST-ANAC019 NAC domain (UniProt Q9C932)
T9 sequence: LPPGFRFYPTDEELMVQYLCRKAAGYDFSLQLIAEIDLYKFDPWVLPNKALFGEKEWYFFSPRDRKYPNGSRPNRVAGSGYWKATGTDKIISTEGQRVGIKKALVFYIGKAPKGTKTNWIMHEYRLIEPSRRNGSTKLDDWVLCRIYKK

Sequence | binding signal (GST-NTL6(1-168)) | binding signal (GST-ANAC055(1-171)) | binding signal (GST-NTL8 NAC domain) | binding signal (GST-SND1(1-203)) | binding signal [1] | binding signal (GST-WRKY1(266-371)) | binding signal (GST-NAP(1-166)) | binding signal (GST-ATAF1 NAC domain) | binding signal (GST-NST2(1-184)) | binding signal (GST-ANAC092(1-176)) | binding signal (GST-ANAC019 NAC domain)
ACACGACT | -0.0632 E-score | 0.364 E-score | 0.0226 E-score | -0.0213 E-score | -0.0365 E-score | 0.312 E-score |  |  |  |  | 
ACGCAAGC | -0.0626 E-score | 0.295 E-score | 0.0216 E-score | 0.417 E-score | -0.037 E-score | -0.0227 E-score | 0.294 E-score |  |  |  | 
AGAAGCAA | 0.361 E-score | 0.119 E-score | 0.218 E-score | 0.382 E-score | 0.0768 E-score | 0.0108 E-score | 0.0488 E-score | 0.0783 E-score | 0.284 E-score |  | 
CTAAGTAA | 0.49 E-score |  | 0.216 E-score | 0.394 E-score | 0.0376 E-score | 0.0382 E-score |  |  |  |  | 
CACGTAAA |  | 0.414 E-score | -0.0171 E-score | 0.289 E-score | 0.118 E-score | -0.00432 E-score | 0.35 E-score |  | 0.293 E-score |  | 
ATACGTTA | -0.0443 E-score | 0.139 E-score | -0.0674 E-score | 0.433 E-score | -0.00046 E-score | -0.109 E-score |  | 0.273 E-score |  |  | 
ACGTTACG | 0.0351 E-score | 0.299 E-score | 0.13 E-score | 0.44 E-score | 0.123 E-score | 0.0365 E-score | 0.341 E-score |  |  |  | 
GAAGGAAC | 0.445 E-score | 0.172 E-score |  | 0.337 E-score | 0.00274 E-score | -0.0458 E-score | 0.148 E-score |  | 0.249 E-score | 0.189 E-score | 
AGAAGGAA | 0.417 E-score |  |  | 0.157 E-score | 0.00768 E-score | -0.00911 E-score | -0.0992 E-score | 0.149 E-score | 0.177 E-score | 0.192 E-score | 0.0646 E-score
